Binding data for three molecules are collected here from PMC4209604.

The chains behind the UniProt entries cited, without tags or fusion partners.
UniProt P46934: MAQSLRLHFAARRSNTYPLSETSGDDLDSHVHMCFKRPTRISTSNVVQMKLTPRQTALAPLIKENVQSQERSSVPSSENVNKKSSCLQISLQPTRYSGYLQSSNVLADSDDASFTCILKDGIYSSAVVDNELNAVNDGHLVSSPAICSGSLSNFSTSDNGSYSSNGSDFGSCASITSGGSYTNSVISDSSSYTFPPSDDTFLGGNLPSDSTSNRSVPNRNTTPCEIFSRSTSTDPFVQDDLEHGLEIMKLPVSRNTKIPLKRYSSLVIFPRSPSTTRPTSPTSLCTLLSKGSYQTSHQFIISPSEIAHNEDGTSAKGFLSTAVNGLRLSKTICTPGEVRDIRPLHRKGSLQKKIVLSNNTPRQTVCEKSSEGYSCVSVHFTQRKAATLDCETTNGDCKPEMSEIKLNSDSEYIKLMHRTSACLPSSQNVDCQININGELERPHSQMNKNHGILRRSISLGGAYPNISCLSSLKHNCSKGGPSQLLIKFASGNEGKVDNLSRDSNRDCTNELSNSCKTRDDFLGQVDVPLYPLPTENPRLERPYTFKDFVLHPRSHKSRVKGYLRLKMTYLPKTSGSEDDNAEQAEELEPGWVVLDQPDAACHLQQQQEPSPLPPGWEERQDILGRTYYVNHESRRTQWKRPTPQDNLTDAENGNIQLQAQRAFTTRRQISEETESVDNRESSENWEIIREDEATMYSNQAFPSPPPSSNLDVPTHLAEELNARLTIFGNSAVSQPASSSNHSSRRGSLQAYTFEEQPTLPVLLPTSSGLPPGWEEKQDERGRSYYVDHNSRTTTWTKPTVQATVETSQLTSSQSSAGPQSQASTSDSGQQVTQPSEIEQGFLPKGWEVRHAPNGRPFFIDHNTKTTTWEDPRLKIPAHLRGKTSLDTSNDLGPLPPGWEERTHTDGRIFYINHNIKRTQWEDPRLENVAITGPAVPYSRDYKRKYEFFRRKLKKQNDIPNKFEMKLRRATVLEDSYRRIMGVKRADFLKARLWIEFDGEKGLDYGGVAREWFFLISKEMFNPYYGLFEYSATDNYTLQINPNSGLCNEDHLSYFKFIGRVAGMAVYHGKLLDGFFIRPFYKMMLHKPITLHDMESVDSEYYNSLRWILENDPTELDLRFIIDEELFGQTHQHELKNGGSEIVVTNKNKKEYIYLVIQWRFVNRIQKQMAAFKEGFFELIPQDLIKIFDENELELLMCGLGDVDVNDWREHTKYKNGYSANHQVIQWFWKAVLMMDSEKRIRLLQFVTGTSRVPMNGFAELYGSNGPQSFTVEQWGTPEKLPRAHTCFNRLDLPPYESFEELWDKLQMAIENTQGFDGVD
UniProt P84022: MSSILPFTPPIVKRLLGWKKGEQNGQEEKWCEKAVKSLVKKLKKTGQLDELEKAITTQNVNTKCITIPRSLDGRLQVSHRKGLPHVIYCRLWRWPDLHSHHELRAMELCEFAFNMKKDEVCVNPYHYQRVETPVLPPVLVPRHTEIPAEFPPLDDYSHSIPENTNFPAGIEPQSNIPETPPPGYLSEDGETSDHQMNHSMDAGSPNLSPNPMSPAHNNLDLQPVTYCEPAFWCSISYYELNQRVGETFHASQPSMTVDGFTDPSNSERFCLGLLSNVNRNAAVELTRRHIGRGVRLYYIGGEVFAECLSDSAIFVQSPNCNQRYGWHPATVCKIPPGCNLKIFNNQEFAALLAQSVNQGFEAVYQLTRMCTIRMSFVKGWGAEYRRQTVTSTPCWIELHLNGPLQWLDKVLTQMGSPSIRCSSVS
UniProt Q15796: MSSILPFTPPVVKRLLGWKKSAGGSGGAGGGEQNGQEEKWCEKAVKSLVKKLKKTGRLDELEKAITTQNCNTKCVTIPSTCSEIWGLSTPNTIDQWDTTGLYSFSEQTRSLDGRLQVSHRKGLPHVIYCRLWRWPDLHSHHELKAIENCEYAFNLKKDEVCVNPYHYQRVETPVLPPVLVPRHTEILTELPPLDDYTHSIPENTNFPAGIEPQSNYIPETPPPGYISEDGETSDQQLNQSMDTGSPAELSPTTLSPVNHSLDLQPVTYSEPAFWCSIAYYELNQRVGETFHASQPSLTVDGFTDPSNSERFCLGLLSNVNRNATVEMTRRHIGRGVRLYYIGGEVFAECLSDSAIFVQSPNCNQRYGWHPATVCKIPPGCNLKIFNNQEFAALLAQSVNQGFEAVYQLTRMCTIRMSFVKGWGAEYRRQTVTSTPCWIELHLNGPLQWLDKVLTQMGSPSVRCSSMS

Numbering of substitutions follows the chain as printed. No constants are given. Whether binding was seen depends on the method and setting. In cells and extracts the contact can be indirect. Some results given as binding are weak or reduced against the parent protein; the word gives no strength. For some of these results: Sequences can lack the tags named with a protein.

The target of assay [1] is T1, His-tagged TMEPAI (transmembrane prostate androgen-induced), wild type (human) (UniProt Q969W9).
T1 sequence: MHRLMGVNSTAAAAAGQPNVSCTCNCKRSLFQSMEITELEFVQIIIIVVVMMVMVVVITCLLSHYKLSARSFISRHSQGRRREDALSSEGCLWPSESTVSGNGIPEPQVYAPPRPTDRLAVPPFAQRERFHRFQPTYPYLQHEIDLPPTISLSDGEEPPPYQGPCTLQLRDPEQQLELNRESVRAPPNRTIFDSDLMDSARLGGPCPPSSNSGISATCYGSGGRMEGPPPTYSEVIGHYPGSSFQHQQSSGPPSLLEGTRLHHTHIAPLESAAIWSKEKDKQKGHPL
The experiment in a line: pull-down; His-TMEPAI (wild type, PY or SIM mutant) co-expressed with Flag-Smad2 or Flag-Smad3 in MDA-MB-231; lysates 24 h after transfection captured on Co2+-Talon metal beads under native conditions; Western blot for TMEPAI and R-Smads. For orientation: In western blotting, separated proteins are transferred to a membrane and probed.

Assay [2] addresses T2, His-tagged TMEPAI PY mutant (158PPPY161 → PPPA and 229PPTY232 → PPTA) (human) (UniProt Q969W9).
T2 sequence: T1 sequence with Y161A, Y232A
The assay is described as above.

Assay [3] deals with T3, His-tagged TMEPAI SIM mutant (186PPNR189 → PAAR) (human) (UniProt Q969W9).
T3 sequence: T1 sequence with P187A, N188A
The assay is described as above.

Assay [4] deals with NEDD4, a WW-domain containing HECT E3 ligase, endogenous (human (endogenous in MDA-MB-231)) (UniProt P46934). The experiment in a line: co-IP; immunoprecipitation by α-NEDD4 rabbit polyclonal antibody from MDA-MB-231 cell lysates treated without or with TGF-β; blots for TMEPAI, NEDD4 and PTEN; rabbit IgG control.

For the molecule “Flag-tagged Smad3 (from UniProt P84022 1-425)”, the binding result in assay [1] was “binds”; in assay [2], “binds”; in assay [3], “no binding”.
Turning to “Flag-tagged Smad2 (from UniProt Q15796 1-467)”, the binding result is “binds” in assay [1], “binds” in assay [2] and “no binding” in assay [3].

B1: TMEPAI (transmembrane prostate androgen-induced), endogenous (protein, UniProt Q969W9 1-287)
chain: T1 sequence
As for B1, the binding entry in assay [4] was “binds”.
